Experimental data as given in the supplement of paper PMC4723716.
± gives the uncertainty stated by the source. The full ranking holds about 9,900 compounds; the median of “viability index relative to DMSO control” is about 1, and the lowest 2% start at about 0.85. This is one part of the list.

Each compound was assayed on Plasmodium falciparum NF54 stage V gametocytes (assay: viability index relative to DMSO control (fraction); higher = less gametocyte killing). Details: 2.5 µM, library set: Broad Institute DOS, incubation time: 72 h.
Procedure, shortened: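 Viability index is the count of red-stained particles in a well divided by the plate mean of solvent-only wells. Particles of 20–70 µm2 were counted in one imaged field per well after one to two hours with 3 µl of 2.5 µM MitoTracker Red CMXRos and 0.13% saponin. Before staining, P. falciparum NF54 stage V gametocytes in serum-free medium (0.75% gametocytemia, 1.25% hematocrit, 10 µl, 1,536-well plates) were kept with compound at 2.5 µM for 72 hr at 37°C under low oxygen.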
`O=C(C[C@@H]1C[C@@H]2c3cc(NC(=O)C4CCC4)ccc3O[C@@H]2[C@@H](CO)O1)NC1CCCC1` was tested, and the viability index was 1.08 ± 0.011.
Compound `CO[C@@H]1CN(C)C(=O)c2cc(NC(=O)NC3CCCCC3)ccc2OC[C@@H](C)N(CC2CCOCC2)C[C@@H]1C` has a viability index of 1.056 ± 0.0027.
Work on `O=C1N[C@H](Cc2ccccc2)COCc2cn(nn2)CC[C@@H]1Cc1cccc(F)c1` yielded a viability index of 0.98 ± 0.097.
`CO[C@H]1CC[C@H]2CCOc3ccc(C#N)cc3C(=O)N(C)[C@@H](C)C(=O)N(C)C[C@H]1O2` was tested, and the viability index was 1.087 ± 0.0079.
`CN1CCN(C(=O)C[C@@H]2C[C@H]3c4cc(NS(C)(=O)=O)ccc4O[C@H]3[C@@H](CO)O2)CC1` gave a viability index of 0.964 ± 0.023.
In the case of `COc1ccccc1C#Cc1ccc([C@H]2[C@H](C#N)N(C(=O)C3CCC3)[C@H]2CO)cc1`, the viability index is reported as 1.02 ± 0.025.
Work on `O=C(C1CCOCC1)N1CC(=O)N2[C@@H](CO)[C@H](c3ccc(-c4cccnc4)cc3)[C@@H]2C1` yielded a viability index of 0.988 ± 0.069.
With `Cc1noc(C)c1S(=O)(=O)Nc1ccc2c(c1)C(=O)N([C@@H](C)CO)C[C@H](C)[C@H](CN(C)Cc1ccc(C(=O)O)cc1)OCCCC[C@@H](C)O2` the viability index was 1.1 ± 0.018.
With `COc1ccc(-c2cn(CC[C@@H]3CC[C@@H](NC(=O)c4cnccn4)[C@@H](CO)O3)nn2)cc1` the viability index was 1.18 ± 0.013.
With `CC(C)NC(=O)N(C)C[C@H]1Oc2c(NS(=O)(=O)c3cccs3)cccc2C(=O)N([C@H](C)CO)C[C@H]1C` the viability index was 0.999 ± 0.042.
`C[C@@H]1CN([C@H](C)CO)C(=O)c2cc(N(C)C)ccc2O[C@@H](C)CCCCO[C@H]1CN(C)Cc1ccc(C(=O)O)cc1` was tested, and the viability index was 1.13 ± 0.074.
Compound `CO[C@@H]1CN(C)C(=O)c2cc(NC(C)=O)ccc2OC[C@@H](C)N(Cc2ccncc2)C[C@@H]1C` has a viability index of 0.985 ± 0.088.
`O=C(C[C@@H]1CC[C@@H](NC(=O)C2CC2)[C@H](CO)O1)Nc1ccccc1` gave a viability index of 0.897 ± 0.16.
With `O=C(c1ccccc1F)N1C[C@H]2[C@@H](c3ccccc31)[C@@H](CO)N2Cc1ccc2c(c1)OCO2` the viability index was 1.07 ± 0.057.
Work on `O=C(NC[C@@H]1[C@H](c2ccccc2)[C@H](CO)N1C(=O)C1CCC1)NC1CCCC1` yielded a viability index of 1.02 ± 0.031.
Work on `CCCNC(=O)N(C)C[C@@H]1Oc2cc(C#C[C@@H](C)O)ccc2S(=O)(=O)N([C@@H](C)CO)C[C@@H]1C` yielded a viability index of 0.965 ± 0.067.
With `C[C@@H]1CN([C@@H](C)CO)C(=O)c2ccccc2-c2ccccc2CO[C@@H]1CN(C)C(=O)CCC(F)(F)F` the viability index was 1.04 ± 0.052.
For `O=C(C1CC1)N1C[C@H]2[C@@H](c3ccccc31)[C@H](CO)N2C(=O)c1ccccc1`, the viability index was 1.01 ± 0.066.
Compound `CO[C@H](CN(C)Cc1ccc2c(c1)OCO2)[C@@H](C)CN(C(=O)Nc1ccc(F)cc1)[C@H](C)CO` has a viability index of 1.07 ± 0.022.
`O=C(C[C@H]1CC[C@@H](NC(=O)c2ccc(F)cc2)[C@@H](CO)O1)NCCc1ccccc1` was tested, and the viability index was 1.14 ± 0.051.
In the case of `O=C(c1cc2c(c(-c3cccc(-c4ccc(F)cc4)c3)n1)[C@@H](CCO)N(C(=O)c1ccc3c(c1)OCO3)C2)N1CCOCC1`, the viability index is reported as 1.04 ± 0.011.
`C[C@H]1CCCCO[C@H](CN(C)C(=O)c2ccncc2)[C@@H](C)CN([C@@H](C)CO)C(=O)c2cc(NS(=O)(=O)c3cccs3)ccc2O1` showed a viability index of 1.15 ± 0.11.
Work on `CCCC(=O)Nc1ccc2c(c1)C(=O)N(C)[C@@H]1CC[C@H](CC(=O)N3CCCCC3)O[C@@H]1CO2` yielded a viability index of 1.1 ± 0.03.
In the case of `CCS(=O)(=O)NCC[C@H]1CC[C@H](NC(=O)Nc2cc(Cl)cc(Cl)c2)[C@H](CO)O1`, the viability index is reported as 1.08 ± 0.037.
For `COc1ccc2c3c([nH]c2c1)[C@@H](CO)N(Cc1ccc(Cl)cc1)C[C@]31CN(C1)S(C)(=O)=O`, the viability index was 0.931 ± 0.095.
`COc1ccc(S(=O)(=O)Nc2ccc3c(c2)C(=O)N([C@@H](C)CO)C[C@H](C)[C@H](CN(C)S(=O)(=O)c2ccc(Cl)cc2)OCCCC[C@@H](C)O3)cc1` showed a viability index of 0.953 ± 0.064.
For `CCCNC(=O)N1[C@H](CO)[C@H](c2ccccc2C2=CCCCC2)[C@@H]1C#N`, the viability index was 1.157 ± 0.0063.
In the case of `Fc1cccc(CN2C[C@@H]3N[C@H](C2)[C@H]3c2ccc(/C=C/c3ccccc3)cc2)c1`, the viability index is reported as 0.99 ± 0.017.
In the case of `CCS(=O)(=O)N1CC2(C1)[C@@H](c1ccccc1)[C@@H](CO)N2C(=O)c1ccccc1`, the viability index is reported as 1.13 ± 0.066.
`CC[C@@H]1C/C=C/C[C@@H](C)Oc2ccccc2C(=O)N(C)[C@@H](C)C(=O)N1.CC[C@@H]1C/C=C\C[C@@H](C)Oc2ccccc2C(=O)N(C)[C@@H](C)C(=O)N1` gave a viability index of 1.025 ± 0.0088.
In the case of `COc1ccc(NC(=O)N2CC(=O)N3[C@@H](CO)[C@@H](c4ccc(Br)cc4)[C@@H]3C2)cc1`, the viability index is reported as 1.01 ± 0.11.
With `C[C@@H]1CN([C@@H](C)CO)C(=O)c2c(c3ccccc3n2C)-c2ccccc2CO[C@H]1CN(C)C` the viability index was 1.07 ± 0.06.
`COCCNC(=O)C[C@H]1CC[C@H]2[C@@H](COc3ccc(NS(=O)(=O)c4ccc(Cl)cc4)cc3C(=O)N2C)O1` gave a viability index of 1.07 ± 0.098.
With `Cc1ccc(S(=O)(=O)Nc2ccc3c(c2)C(=O)N(C)[C@@H]2CC[C@@H](CC(=O)NCCc4ccncc4)O[C@H]2CO3)cc1` the viability index was 0.862 ± 0.073.
With `O=C(C[C@H]1CC[C@@H]2[C@H](COC[C@H](O)CN2S(=O)(=O)c2ccc(F)cc2)O1)NCCN1CCCCC1` the viability index was 0.9656 ± 0.002.
With `CCS(=O)(=O)N1CC[C@@]2(CC1)CN([C@@H](CO)c1[nH]c3cc(OC)ccc3c21)S(=O)(=O)c1ccc(C)cc1` the viability index was 0.934 ± 0.052.
`CNC[C@@H]1OCc2cn(nn2)CCCC(=O)N([C@H](C)CO)C[C@H]1C` gave a viability index of 1.033 ± 0.0092.
`CCCNC(=O)N1C[C@@H]2N[C@H](C1)[C@@H]2c1ccc(-c2cccc(F)c2)cc1` gave a viability index of 1.11 ± 0.034.
Compound `Cc1ccc(S(=O)(=O)N[C@H]2CC[C@H](CC(=O)NCc3ccncn3)O[C@@H]2CO)cc1` has a viability index of 1 ± 0.078.
In the case of `O=C(c1ccccn1)N1[C@@H](CO)[C@@H](c2ccccc2)C12CN(Cc1ccccc1F)C2`, the viability index is reported as 1.05 ± 0.038.
Work on `CS(=O)(=O)N1[C@H](C#N)[C@@H](c2ccccc2-c2ccccc2F)[C@H]1CO` yielded a viability index of 1.09 ± 0.064.
In the case of `O=C(c1ccccc1F)N1CC(=O)N2[C@H](CO)[C@@H](c3ccc(C#Cc4ccccc4)cc3)[C@H]2C1`, the viability index is reported as 0.9724 ± 0.00054.
For `CCN(C[C@H]1[C@@H](c2ccccc2)[C@@H](CO)N1C(=O)COC)S(C)(=O)=O`, the viability index was 1.04 ± 0.028.
In the case of `C[C@@H]1CCCCO[C@H](CN(C)C(=O)Cc2ccccc2)[C@@H](C)CN([C@H](C)CO)C(=O)c2cc(NS(C)(=O)=O)ccc2O1`, the viability index is reported as 1.118 ± 0.0086.
For `CCS(=O)(=O)Nc1ccc2c(c1)C(=O)N(C)C[C@@H](OC)[C@@H](C)CN(C(=O)c1ccc3c(c1)OCO3)[C@@H](C)CO2`, the viability index was 1.09 ± 0.067.
